This is one part of the list.
Each sequence was assayed on PfSIP2 AP2 domain 1 (GST-tagged) (assay: gcPBM binding intensity (ln(normalized median fluorescence intensity)); higher = stronger DNA binding).
Summary of the method: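 GST-tagged P. falciparum DNA-binding domains, expressed in E. coli (about 25 μg on average), were applied for 1 h to an Agilent 4 × 180k array of primer-extended double-stranded 36-bp intergenic genomic probes plus negative controls. The binding buffer was 1× PBS with 1% milk, 0.2 mg/ml BSA, 0.5% salmon testes DNA and 0.03% Triton X-100. Bound protein was detected with Alexa488 anti-GST antibody and scanned at 488 nm. Binding intensity is the highest Masliner-normalised natural-log median intensity across replicate spots of either probe orientation.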

| Sequence | gcPBM binding intensity (ln) |
| --- | --- |
| AATAAATATATTACATATATGTGTAGTATTTTTTTA [TGCATGCA_negctrl_site268] | 6.74 |
| TAAGCTTGTAACAGTTTACACACTAATATTTATAAA [CACACA_site3907] | 6.75 |
| ACACATATATATTATTATTATATAATATATATATAT [CACACA_negctrl_site1545] | 8.63 |
| ACATGTTTTATGTGCACACAAAGTTGTTATGAGGTT [CACACA_site4031] | 8.42 |
| ATATAATATTTCATGTGGACACATTTTATGATTGTA [XGTACX_site8770] | 7.1 |
| ATAGTAAACGAAATAAAAAGATTAGCATAATATCCT [CACACA_negctrl_site1730] | 6.66 |
| ATATATTATATATATTACAACTTAAGAATATACATA [TGCATGCA_negctrl_site371] | 7.2 |
| TCCTGTGATTATATAACACACATTATTGCTTATAAG [CACACA_site1518] | 7.06 |
| ATTGTTTATATTGATTGTACTCATTTTTTTTTTATT [XGTACX_site1946] | 7.19 |
| ATATATTGAAAAAAATGTACGTATTTTTTTATGTTA [XGTACX_site4654] | 7.17 |
| ATTATATATATATATACACACACACCCTAAAAATAT [CACACA_site8463] | 7.53 |
| AATCAAAATTAATTAACACACAATTTTAATATTCTT [CACACA_site2063] | 6.79 |
| TATAATTTTCTTAGTAGTACATTTTAAATCTACTAC [XGTACX_site2621] | 7.08 |
| TGTATCCACATATGTACACACATATATCTGTATATG [CACACA_site5668] | 7.32 |
| ACTAATAACAAAAGCTTGCACTTTTTTTTTCCTAAT | 7.82 |
| TATGTACAAATATGTACACACACACCGATATATATA [CACACA_site4487] | 7.52 |
| AAAAAAAAAAAAAAAAGTACAAAAATTATATTAAGA [XGTACX_site4255] | 7.38 |
| ATATAAGATTACAAAAATTATGTGTAAATATTTAAT [XGTACX_negctrl_site448] | 7 |
| ACCTATATAAATTATACACACAAATATAAATATATA [CACACA_site2843] | 7.2 |
| AATTATATATAACGTAGTACATATTATAAACCACGT [XGTACX_site8816] | 6.98 |
| TTGTTATTCCACCGTTGTACAGTTATATACATACAC [XGTACX_site8296] | 7.31 |
| TGTCATAAAACCGTTTGTACATATTAATAGACACCT [XGTACX_site4520] | 6.99 |
| TATAATAATAATGATAGTACGTATGAGTTCAAGAAA [XGTACX_site4918] | 7.16 |

| Sequence | gcPBM binding intensity (ln) |
| --- | --- |
| ATATTCCTTTAATATTGTACTATTTTTTTCCTTATA [XGTACX_site8659] | 7.06 |
| TCCATGCAGAAACACACACACAAAAAAAAATTCTTT [CACACA_site4099] | 7.18 |
| ATCTATGGGTAGTATACACACTGTATATTTAGGAAT [CACACA_site5569] | 7.05 |
| ATTCTATTCTCCTTCACACACAAAAATATTTCATCA [CACACA_site2360] | 7.44 |
| TTTTTGCAAAAAGAAATAATTTTATTTTAGTTCGGA [CACACA_negctrl_site1718] | 6.76 |
| TTACGAATAAAACAGTGTACATTGAATTTCTATGAG [XGTACX_site4771] | 6.91 |
| ATAATTGTTTAAAGGTGTACAATACATATATTTTAA [XGTACX_site3648] | 6.91 |
| TCATATATTATATATTGTACAAAATAATAAGTATTT [XGTACX_site3987] | 7.02 |
| ATGCAATTATATAGTAGTACAAATTTATAAATATAC [XGTACX_site4869] | 7.34 |
| ATTATACACCCGCGCACACACAACAAAAAAAAAAAA [CACACA_site5871] | 8.04 |
| ATATATATATATATGGGTACGTAAAAATATAATAAA [XGTACX_site4036] | 9.26 |
| GTTGTTATATAAAATTGTACATAAAAAACAAAATAT [XGTACX_site5313] | 7.29 |
| TAAAATTATTAATGAGTGCATTATAAAATCTATATA [GTGCAC_site9493] | 8.79 |
| TTTTCTTTCTTTCAAACACACATTAATTTTATTCAT [CACACA_site2734] | 6.89 |
| ATAAATGGCTATAGCATATTGTATATGTGATTATAA [CACACA_negctrl_site948] | 6.96 |
| TATATATATATATATTGTACTAAATCATTTAAATGA [XGTACX_site8016] | 9.14 |
| AAAAAACAAAAACACACGCACACAAAAAAAAAAAAA [CACACA_site802] | 7.25 |
| ATGAAAATATTTAAAAGTACAGAAATATAAAACCTT [XGTACX_site403] | 6.92 |
| CACAAATATACAAATACACACAAATATACACATATA [CACACA_site7176] | 7.01 |
| AAAATATTTATCATTTGTACTTAGATGTAAACTTGA [XGTACX_site1778] | 6.75 |
| TATAAAATATAAATAAATAAATAAATATATATATAT [TGCATGCA_negctrl_site448] | 9.26 |
| TATTTTATACACTTGCTAAAACATTAACACATATGT [CACACA_negctrl_site1818] | 7.14 |
